Test results from PubChem BioAssay AID686978 (National Center for Advancing Translational Sciences (NCATS), 2013).
About 64,000 (15%) of roughly 420,000 compounds were called active. Inconclusive results, whose numbers are uncertain, are shown with a selection of clear calls. The call rests on the fitted dose curve; in most records, active means well fitted inhibition curve with a large enough effect; inconclusive means small, poorly fitted or top-dose-only effect; inactive means flat fitted curve, though single readings scatter. Potencies of inconclusive entries are left out as doubtful fits.

Test: qHTS for Inhibitors of human tyrosyl-DNA phosphodiesterase 1 (TDP1): qHTS in cells in absence of CPT; further: nearly all actives have a fitted effect of over 55% in size
Conditions: DT40 Tdp1-/- hTDP1 cells, no CPT, ATP luminescence, 48 h; activity change, negative = growth inhibition: at 46.2 µM (top of the series) unless noted
Summary of the method: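 A cellular qHTS used chicken DT40 cells lacking endogenous Tdp1 but carrying stably transfected human TDP1. Compounds were applied without camptothecin, and cell growth kinetics were judged by ATP-dependent luminescence after ≥48 hr.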
On the % scale 0 is the no-effect control and ±100 the full control effect; potency means the concentration at half of the fitted maximal effect; tags describe the fitted curve by direction and shape.

| SMILES | Potency | activity change, negative = growth inhibition |
| --- | --- | --- |
| COc1ccc(/C=C/C(=O)N(c2ccccn2)C2CCCCC2)cc1OC | inconclusive [inhibitor, partial curve, poor fit] | – |
| COc1cc(Cc2nc3ccc(S(=O)(=O)N4CCOCC4)cc3[nH]2)cc(OC)c1OC | inconclusive [inhibitor, single point] | – |
| COC(=O)/C=C1\N/C(=N/c2nc(C)c3cc(OC)ccc3n2)NC1=O | active: 9.2 µM | – |
| COc1ccc(NC(=O)c2sc3nc4c(cc3c2N)CCCCCC4)cc1 | inconclusive [inhibitor, single point] | – |
| CCOC(=O)c1c(NC(=O)c2nn(CC)cc2Br)sc(C)c1C | inconclusive [inhibitor, single point] | – |
| Cc1cc(=O)n2[nH]c(-c3ccc(F)cc3)cc2n1 | active: 13 µM | – |
| COc1cccc(-n2c(-c3ccccc3F)nc3c(cnn3-c3ccc(C)cc3)c2=O)c1 | active: 11.6 µM | – |
| N=c1c2c3c(sc2nc2n1CCCCC2)CCCCC3 | active: 11.6 µM | – |
| O=C(NCC1CCN(c2ccc(S(=O)(=O)N3CCOCC3)cc2)CC1)c1ccc(Cl)cc1 | active: 13 µM | – |
| COc1ccc(C(=O)CC(Sc2ccccc2N)c2ccc(OC)cc2)cc1 (configuration not stated) | inconclusive [inhibitor, single point] | – |
| COc1ccc2[nH]c(=O)c(CN(C(C)=O)C3CCCCC3)cc2c1 | inconclusive [inhibitor, single point] | – |
| Cc1ccc(C)n1NC(=O)c1ccccc1 | inactive | – |
| Cc1ccc(OCC(=O)N(Cc2ccco2)c2c(N)n(Cc3ccccc3)c(=O)[nH]c2=O)cc1C | inactive | – |
| COc1cccc2oc(CCc3ccccc3)cc(=O)c12 | inconclusive [inhibitor, single point] | – |
| Cc1ccccc1OCc1nc2c3cnn(-c4ccccc4F)c3ncn2n1 | inactive | – |
| CCOC(=O)c1sc2nccc(N(C)C)c2c1N=CNOC | inconclusive [inhibitor, single point] | – |
| Cc1cc(C)c2nc(-c3ccccn3)cc(C(=O)NCc3cc(C)n(C)n3)c2c1 | inconclusive [inhibitor, single point] | – |
| CC(C)(C)OC(=O)NCCCCCNC(=O)c1nc[nH]c1C(=O)N1CCc2ccccc2C1 | inconclusive [inhibitor, partial curve] | – |
| FC(F)(F)c1cccc(-c2cncc(N3CCN(CCN4CCCC4)CC3)n2)c1 | active: 16.4 µM | – |
| Cc1cc(C)c(NC(=O)c2cn3c4c(c(N5CCN(C)CC5)c(F)cc4c2=O)OCC3C)c(C)c1 (configuration not stated) | inconclusive [inhibitor, single point] | – |
| Clc1cccc(CN2CCSCC2)c1 | inactive | – |
| CC(=O)N1CCN(C(=S)Nc2cc(S(=O)(=O)N3CCOCC3)ccc2Cl)CC1 | inactive | – |
| COc1ccc2c(c1)c(=O)c(Br)c(C)n2Cc1ccccc1 | inconclusive [inhibitor, partial curve] | – |
| COc1ccc(CNC(=O)CSc2ncc3c(n2)-c2cc(Cl)ccc2N(Cc2ccccc2)S3(=O)=O)cc1 | inactive | – |

| SMILES | Potency | activity change, negative = growth inhibition |
| --- | --- | --- |
| Cc1cc(NC(=O)CSCC(=O)N(c2ccc(F)cc2)C(C(=O)NC2CCCCC2)c2ccc(O)c(O)c2)no1 (configuration not stated) | active: 16.4 µM | – |
| C=CCNC(=O)CN1CCC(NC(=O)c2ccco2)CC1 | inactive | – |
| O=S(=O)(c1cccc2nonc12)N1CCCCCC1 | inconclusive [inhibitor, single point] | – |
| Cc1cccc(N(Cc2ccccc2)C(=O)c2ccccc2S(C)(=O)=O)c1 | inconclusive [inhibitor, partial curve] | – |
| COc1cccc(N2C(=O)Nc3ccc(Br)cc3C2(O)C(=O)NCCCOC(C)C)c1 (configuration not stated) | inactive | – |
| CCOc1cc(/C=N/n2c(C)nc3ccccc3c2=O)ccc1O | – | inconclusive: -30.2% [inhibitor] |
| CCCCCNc1nc(N2CCCC2)c2c(c1C#N)CCN(C)C2 | active: 23.1 µM | – |
| CCOC(=O)Cn1c(=O)cc(C(F)(F)C(F)(F)F)c2c(C)nn(CC)c21 | inconclusive [inhibitor, single point] | – |
| O=C(N=Nc1c(O)[nH]c2ccccc12)c1cc(-c2ccc(F)cc2)n[nH]1 | inconclusive [inhibitor, single point] | – |
| Cc1cc(/C=N\NC(=O)CC(=O)NC2CCCCC2)c(C)n1-c1ccc(Cl)cc1 | inconclusive [inhibitor, partial curve, poor fit] | – |
| CC(=O)c1ccc(S(=O)(=O)N2CCN(c3nc(-c4cccs4)nc4ccccc34)CC2)cc1 | inconclusive [inhibitor, single point] | – |
| COC(=O)c1[nH]c2ccc(C)cc2c1NC(=O)NC1CCCCC1 | inactive | – |
| Cc1cccc(CN2CCN(CC(=O)NCCCN3CCCC3=O)C2=O)c1 | inactive | – |
| CCS(=O)(=O)c1c([N+](=O)[O-])ncn1C | active: 7.31 µM | – |
| COc1cc(O)ccc1/C=N/NC(=O)c1ccc([N+](=O)[O-])cc1 | inconclusive [inhibitor, single point] | – |
| COc1ccc(C(=O)N2CCC3(CCN(Cc4cc(C(F)(F)F)cc(C(F)(F)F)c4)CC3)CC2)cc1 | inconclusive [inhibitor, single point] | – |
| O=C(CSc1cccc2cccnc12)OCC(=O)c1ccc(Br)cc1 | inactive | – |
| COCc1cc(C)nc(NCCc2ccccc2)c1C#N | inconclusive [inhibitor, single point] | – |
| S=C(NCCCc1cnc[nH]1)NCCCN(CCc1ccc(Cl)cc1)c1ccc(Br)cn1 | inconclusive [inhibitor, single point] | – |
| Cc1c(Cl)cccc1NC(=O)N1CCOc2ccccc21 | inconclusive [inhibitor, single point] | – |
| CN(Cc1ccccc1)C1=CC(=[N+]2CCCCC2)CC(C)(C)C1 | active: 0.0103 µM | – |
| COc1ccc(C(C(=O)NC2CCCC2)N(Cc2ccco2)C(=O)c2snc(C(N)=O)c2N)cc1OC (configuration not stated) | inactive | – |
| CC(c1ccco1)N(C(=O)c1ccc(C(F)(F)F)cc1)c1ccccn1 (configuration not stated) | inconclusive [inhibitor, single point] | – |
